Test results reported in PMC4336329 (PLoS ONE, 2015).
Hit rate of the full screen: of about 310,000 compounds, about 14,000 (4.5%) showed an effect of 50% or more. The effect is printed as a negative number. Some of the results follow.

Target: human ether-à-go-go-related gene (hERG) potassium channel (human, UniProt Q12809)
Test: primary screen, population patch clamp on CHO cells stably expressing hERG
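Also: peak tail current of the secondary pulse compared with the same well before compound.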

human ether-à-go-go-related gene (hERG) potassium channel, sequence (Q12809 whole entry, looked up): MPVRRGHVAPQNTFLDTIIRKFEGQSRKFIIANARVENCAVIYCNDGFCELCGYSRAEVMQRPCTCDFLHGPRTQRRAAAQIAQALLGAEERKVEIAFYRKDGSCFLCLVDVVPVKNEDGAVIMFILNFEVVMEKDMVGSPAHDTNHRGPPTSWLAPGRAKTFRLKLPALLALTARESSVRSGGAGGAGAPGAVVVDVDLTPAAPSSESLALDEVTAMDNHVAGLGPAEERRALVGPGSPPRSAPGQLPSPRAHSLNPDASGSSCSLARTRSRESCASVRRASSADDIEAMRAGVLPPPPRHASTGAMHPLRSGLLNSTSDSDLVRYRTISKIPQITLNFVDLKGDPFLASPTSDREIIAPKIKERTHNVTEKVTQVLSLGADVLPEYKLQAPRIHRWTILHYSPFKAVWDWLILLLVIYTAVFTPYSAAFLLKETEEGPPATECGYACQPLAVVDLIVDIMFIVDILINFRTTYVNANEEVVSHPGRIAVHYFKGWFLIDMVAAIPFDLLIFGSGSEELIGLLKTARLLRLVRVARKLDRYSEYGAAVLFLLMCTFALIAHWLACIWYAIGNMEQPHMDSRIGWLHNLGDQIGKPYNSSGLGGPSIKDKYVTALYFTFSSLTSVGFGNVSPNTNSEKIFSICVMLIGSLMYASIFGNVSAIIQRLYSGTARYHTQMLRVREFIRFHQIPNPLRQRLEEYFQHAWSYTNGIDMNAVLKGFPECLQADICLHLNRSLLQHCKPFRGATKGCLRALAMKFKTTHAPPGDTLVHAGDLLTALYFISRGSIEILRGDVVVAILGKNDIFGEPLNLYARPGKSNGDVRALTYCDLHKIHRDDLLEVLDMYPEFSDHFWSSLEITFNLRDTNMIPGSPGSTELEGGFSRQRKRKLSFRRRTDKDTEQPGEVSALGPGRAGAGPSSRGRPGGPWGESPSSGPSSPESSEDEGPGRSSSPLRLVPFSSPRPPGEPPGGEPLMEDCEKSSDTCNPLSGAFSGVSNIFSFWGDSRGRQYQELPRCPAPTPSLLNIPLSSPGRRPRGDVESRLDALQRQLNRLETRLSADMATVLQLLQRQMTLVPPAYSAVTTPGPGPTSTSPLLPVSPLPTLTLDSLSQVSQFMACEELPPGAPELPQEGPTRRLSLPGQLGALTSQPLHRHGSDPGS

| Structure (SMILES) | hERG current change (%, negative = inhibition) at 10uM |
| --- | --- |
| COc1ccccc1Nc1nc(N)nc(CSCCO)n1 | 15% |
| N#C/C(=C(/O)COc1ccc(Cl)cc1)c1nc2ccccc2s1 | 25% |
| CC(C)OCCCNC(=O)c1c(N)n(/N=C/c2cccs2)c2nc3ccccc3nc12 | -7.45% |
| CCCCCCC1CCC(C(=O)N2CCOCC2)CC1 (stereo not drawn) | -7.5% |
| CC(=O)Nc1ccccc1-c1nc2ccc(C(=O)N3CCN(c4ccccc4)CC3)cc2[nH]c1=O | -3.23% |
| CCc1ccc(Nc2nnc(SCC(=O)NC(=O)CN3CCCC3=O)s2)cc1 | 4.35% |
| c1ccc2c(c1)ccc1nnc(SCc3ccc4c(c3)OCCO4)n12 | 7.34% |
| Cc1ccc2nc(-c3ccc4c(c3)NC(=O)CO4)cn2c1 | 14.8% |
| COc1ccccc1C(=O)Nc1ccccc1C(=O)N1C(C)CCCC1C (stereo not drawn) | 0.331% |
| Cc1cc(NC(=O)Cn2cnc3c2c(=O)n(C)c(=O)n3C)n(-c2ccccc2)n1 | 4.12% |
| COc1cc(N)c(C(O)c2nccc3cc(OC)c(OC)cc23)cc1OC (stereo not drawn) | 13.9% |
| CC1(C)CC(N2CN(C3CCCCC3)CC2=O)CC(C)(C)N1 | 16% |
| Clc1ccc(-c2nnc(NCCN3CCCC3)c3ccccc23)cc1 | -71.3% |
| CCOCCOC(=O)COc1ccc2c(-c3ccccc3)cc(=O)oc2c1 | -28.7% |
| CCOc1ccc2ccccc2c1CNCCc1ccc(S(N)(=O)=O)cc1.Cl | -73.1% |
| CN1CCN(c2ncnc3scc(-c4ccccc4Cl)c23)CC1 | -41.4% |
| NC(=O)c1nnn(-c2nonc2N)c1-c1ccc([N+](=O)[O-])cc1 | 24.7% |
| CC(C)NC(=O)Cn1nnc(-c2cccc(NC(=O)c3ccccc3F)c2)n1 | -1.23% |
| Cc1c(Br)c(C(=O)NNC(=O)c2ccc(C(C)(C)C)cc2)nn1C | 12.7% |
| CCOC(=O)CSc1nnc(-c2ccc(OC)cc2)n1CC | 7.84% |
| N#Cc1c(NC(=O)CCC(=O)O)sc2c1CCCCC2 | 14.9% |
| COCCNC(=S)NNC(=O)c1cccs1 | 16% |

| Structure (SMILES) | hERG current change (%, negative = inhibition) at 10uM |
| --- | --- |
| O=C(CSc1nnc(-c2ccc(F)cc2)c2ccccc12)NCC1CCCO1 (stereo not drawn) | -31.6% |
| COCCCNC(=O)c1ccc2c(c1)nc(C)n2-c1cccc(C)c1 | 6.05% |
| Cc1ccc(/C=N/N2CCN(c3ccncc3S(=O)(=O)N3CCCCC3)CC2)cc1 | 2.02% |
| COc1ccccc1N1CCN(C(=O)/C=C/c2ccc(C)cc2)CC1 | -11.2% |
| Cc1ccc(NC(=O)c2cc3ccccc3oc2=N)cc1 | 23.8% |
| CN(C)NC1=CC(=[N+]2CCCC2)CC(C)(C)C1.[I-] | 14.6% |
| NS(=O)(=O)c1cccc(NC(=O)CC23CC4CC(C2)CC(CC(=O)Nc2cccc(S(N)(=O)=O)c2)(C4)C3)c1 | 9.49% |
| Cc1ccc(NC(=O)COC(=O)CNC(=O)c2ccc(C)s2)cc1 | 11.3% |
| Cc1ccc(N(C)S(=O)(=O)c2c(C)noc2/C=C/N(C)C)cc1 | -1.41% |
| CCCn1c(=N)c(S(=O)(=O)c2ccc(F)cc2)cc2c(=O)n3ccccc3nc21 | -8.53% |
| COc1cccc(/C=C/C(=O)NCCc2ccc3c(c2)OCCO3)c1 | -17.4% |
| CC1CN(C2CCN(C(=O)c3ccccc3)CC2)CC(C)O1 (stereo not drawn) | -3.81% |
| COc1cc(/C=N/NC(=O)c2ccc(N(C)S(=O)(=O)c3ccccc3)cc2)cc(OC)c1OC | -12.7% |
| COc1c(F)c(F)c(C(=O)Nc2ccc(N3CCN(Cc4ccccc4)CC3)cc2)c(F)c1F | -14.6% |
| CC(C)(C)c1ccc(/C=C/C(=O)NC2CCS(=O)(=O)C2)cc1 (stereo not drawn) | -17.8% |
| CC(C)c1cc(-c2cc(C(=O)Nc3ccccc3)on2)nc(NCC2CC2)n1 | 10.3% |
| O=C(Oc1c(-c2ccccc2)c(=O)n2c3c(cccc13)CC2)c1ccccc1 | -9.09% |
| O=C(CN1CCN(Cc2ccc(F)cc2)CC1)Nc1nc2ccccc2s1 | -69.3% |
| CNS(=O)(=O)/C=C/c1ccccc1 | 18.2% |
| COc1ccccc1N1CCN(C(=O)/C=C/c2ccccc2)CC1 | -33.8% |
| CC(C)(C)OC(=O)N1CCC(CNC(=O)Nc2ccccc2)CC1 | 20.7% |
| Cc1ccc(OCC(=O)N2CCN(c3nnc(-c4ccc(C)cc4)c4ccccc34)CC2)cc1 | -49.3% |

| Structure (SMILES) | hERG current change (%, negative = inhibition) at 10uM |
| --- | --- |
| O=S(=O)(c1ccc2[nH]ccc2c1)N1CCCCCC1 | -1.1% |
| CC1CCN(C(=O)CSc2ccc(-c3cccnc3)nn2)CC1 | 7.11% |
| COc1ccc(/C=C2\C(=N)N3N=C(CC(=O)N4CCCCC4)SC3=NC2=O)cc1 | 7.31% |
| CN(Cc1cnn(Cc2ccccc2)c1)C(=O)c1cccc(S(=O)(=O)N2CCOCC2)c1 | -10.3% |
| N#Cc1ccccc1NC(=O)COC(=O)c1ccc2c(c1)OCO2 | 12.8% |
| COc1ccc(-c2nnc(NC(=O)c3ccc(S(=O)(=O)N(C)CC4CCCO4)cc3)o2)c(OC)c1 (stereo not drawn) | 10.3% |
| CC(=O)N1CCc2cc(S(=O)(=O)N3CCc4ccccc43)ccc21 | -37.6% |
| O=C(Nc1ccc(O)c2c(=O)cc(-c3ccccc3Cl)oc12)c1cccs1 | 7.99% |
| CCc1ccccc1NC(=O)CN1CCN(C(=O)CCC(=O)N2CCC(c3ccccc3)=N2)CC1 | -58% |
| COc1cc2nc(NC(=O)c3ccccc3)[nH]c(=O)c2cc1OC | 15.5% |
| Cn1nc(C(F)(F)F)c(/C=N/OCc2c(Cl)cccc2Cl)c1Cl | 6.03% |
| Cc1ccc2nc(SCC(=O)Nc3ccc4c(c3)OCCO4)[nH]c2c1 | 4.73% |
| CCCCC/C=C\C/C=C\C/C=C\CCCCC(=O)O | 10.8% |
| C=CCOc1c2ccc(C(=O)NCc3ccc(C)cc3)cc2nn1C | -2.67% |
| Cc1ccc(/C=C/C(=O)N2CC(C)CC(C)C2)o1 (stereo not drawn) | -14.8% |
| CCC(=O)Nc1ccc(S(=O)(=O)NCC2CCCO2)cc1 (stereo not drawn) | 9.87% |
| CCN(CC)S(=O)(=O)c1ccc(N2CCOCC2)c(NC(=O)C2CCCO2)c1 (stereo not drawn) | -0.0657% |
| C=CCC(C(=O)NC(C)c1ccccc1)C(=O)NC(C)c1ccccc1 (stereo not drawn) | -2.71% |
| O=C(OCc1ccc(Br)cc1)c1cccc(S(=O)(=O)N2CCCC2)c1 | -6.47% |
| CN(c1ccccc1)S(=O)(=O)c1cccc(NC(=O)c2ccc3ncsc3c2)c1 | 7.29% |
| Cc1ccccc1NS(=O)(=O)c1ccc(OCC(=O)NCc2ccccn2)cc1 | -44.6% |
| COc1ccc(N(CC(=O)NC2CCCCCC2)S(=O)(=O)c2ccc(C)cc2)cc1OC | 16% |

| Structure (SMILES) | hERG current change (%, negative = inhibition) at 10uM |
| --- | --- |
| COc1ccc(S(=O)(=O)CCC(=O)Nc2c(C)n(C)n(-c3ccccc3)c2=O)cc1 | 2.02% |
| CCCCn1c(O)c(C=NCc2ccc3c(c2)OCO3)c(=O)[nH]c1=O | -16.6% |
| COCCn1c(CCC(=O)O)nc2c1c(=O)[nH]c(=O)n2CC(C)C | -2.38% |
| O=C(NNC(=O)c1cc([N+](=O)[O-])ccc1Cl)c1cccnc1 | 13.4% |
| COc1cc(/C=C2\CCC(C3CCCC3)C2=O)ccc1OC(C)C (stereo not drawn) | 5.66% |
| CCN(CC(=O)NCc1ccc(Cl)cc1)C(=O)CSc1ccccc1 | -65.6% |
| Cn1c(SCC(=O)NC2CCCC2)nnc1C(F)(F)F | -6.87% |
| Cc1ccccc1CSc1nccn1-c1ccccc1 | -8.94% |
| CC(=O)Nc1c(Br)cc(N2C(=O)CCC2=O)cc1Br | 12% |
| Cc1ccc(C(=O)NC(=S)NNC(=O)c2ccc([N+](=O)[O-])cc2)cc1 | 4.74% |
| N#CCOc1coc(CN2CCN(c3cccc(Cl)c3)CC2)cc1=O | -0.696% |
| O.O=C(OCC1OC2C(Oc3nc(=O)ccn32)C1O)c1ccccc1 (stereo not drawn) | -0.213% |
| COc1cc2c(cc1OC)C1(C)N(CC2)C(C(C)=O)=NN1c1ccc(Cl)cc1 (stereo not drawn) | 3.74% |
| Cc1onc(-c2c(Cl)cccc2Cl)c1C(=O)NC(=S)N1CCOCC1 | 6% |
| CC(C(=O)NCC1CCCO1)n1cccc1C(=O)c1ccccc1 (stereo not drawn) | 15.1% |
| CC(O/N=C\c1ccccc1O)C(=O)Nc1ccccc1C(=O)N1CCOCC1 (stereo not drawn) | 22.8% |
| CC(C)N1C(=O)/C(=C\c2nc3ccccc3c(=O)[nH]2)c2ccccc21 | 23.9% |
| Cc1sc2nc(SCC(=O)Nc3c(C)n(C)n(-c4ccccc4)c3=O)n(C)c(=O)c2c1C | 9.4% |
| COC(=O)c1cc(NS(=O)(=O)c2ccc(NC(C)=O)cc2)ccc1Cl | 5.13% |
| Cc1ccc(S(=O)(=O)N2Cc3ccccc3CC2C(=O)Nc2cc(C)on2)cc1 (stereo not drawn) | -17.8% |
| COC(=O)C1=C(O)/C(=C\c2ccc(CNS(=O)(=O)c3ccc(Cl)cc3)o2)N=C1C | 9.46% |
